Laboratory results reported in PubChem BioAssay AID1030 (National Center for Advancing Translational Sciences (NCATS), 2008).
Values joined by “and” are separate entries in the source; they are usually repeats but may differ in a detail not shown here. Identical values can stand only once. In all, about 220,000 compounds went through this assay and about 16,000 (7.3%) were called active. Inconclusive means that the source gave no clear call. Such entries were picked first, then a sample of the others. The call rests on the fitted dose curve; in most records, active means well fitted inhibition curve with a large enough effect (not every such curve was filed as active); inconclusive means small, poorly fitted or top-dose-only effect, or another doubt; inactive means no such curve, though single readings can be large or run the other way. Potencies of inconclusive entries are doubtful fits and often do not repeat.
Potency means the concentration at half of the fitted maximal effect; tags describe the fitted curve by direction and shape.
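Wherever activity, negative = inhibition is given: plate controls were no enzyme wells and a reference inhibitor.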

Each compound was assayed against Aldehyde dehydrogenase 1A1 (Homo sapiens) (UniProt P00352) (assay: qHTS Assay for Inhibitors of Aldehyde Dehydrogenase 1 (ALDH1A1)). Details: Purified ALDH1A1, NADH fluorescence, propionaldehyde substrate; series mostly up to 75.3 µM; activity, negative = inhibition: at the top concentration.
UniProt P00352, sequence (P00352 whole entry, looked up): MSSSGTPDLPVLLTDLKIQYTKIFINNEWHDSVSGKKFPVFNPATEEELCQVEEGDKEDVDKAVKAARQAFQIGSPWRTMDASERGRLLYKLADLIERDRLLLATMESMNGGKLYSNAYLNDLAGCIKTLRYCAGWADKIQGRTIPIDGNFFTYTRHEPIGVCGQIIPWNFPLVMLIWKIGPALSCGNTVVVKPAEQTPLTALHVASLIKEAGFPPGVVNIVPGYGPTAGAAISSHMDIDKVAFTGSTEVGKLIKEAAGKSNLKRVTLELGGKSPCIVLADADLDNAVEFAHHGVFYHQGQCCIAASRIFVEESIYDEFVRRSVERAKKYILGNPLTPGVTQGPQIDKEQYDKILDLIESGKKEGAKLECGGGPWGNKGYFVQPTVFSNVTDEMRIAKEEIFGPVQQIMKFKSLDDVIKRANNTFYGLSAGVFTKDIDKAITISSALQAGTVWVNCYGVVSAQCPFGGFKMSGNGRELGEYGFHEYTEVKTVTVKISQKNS
For `CN1CCN(c2cc(-c3ccccc3)nc3cc(-c4ccc(F)cc4)nn23)CC1`, the Potency was inconclusive: 31.6 µM [inhibitor, partial curve]. In the case of `Cc1ccc2cc(CN(CCCO)S(=O)(=O)c3cccc4nsnc34)c(=O)[nH]c2c1C`, the Potency was inconclusive: 39.8 µM [inhibitor, single point]. In the case of `O=C(CSCc1ccc(C(=O)O)cc1)Nc1ccccc1`, the “activity, negative = inhibition” value was inactive: 11.2%. In the case of `O=C(CCl)N1N=C(c2cccs2)CC1c1ccco1` (stereo not drawn), the Potency was active: 0.447 µM. With `COc1cccc([C@@H]2Oc3ccc(Br)cc3C(=O)[C@H]2OC(=O)NC2CCCC2)c1` the Potency was inconclusive: 15.8 µM [inhibitor, partial curve] and inconclusive: 44.7 µM [inhibitor, single point]. `O=C(Cc1ccccc1)NNC(=S)Nc1ccccc1` was tested, and the “activity, negative = inhibition” value was inactive: 4.43%. For `CC(C)OC(=O)NCCOC(=O)Nc1ccc(Cl)c(Cl)c1`, the “activity, negative = inhibition” value was inactive: 3.71%. For `Cc1cccc(N2CCN(C(=O)c3cccn4c(=O)c5c(C)c(C)sc5nc34)CC2)c1C`, the Potency was inconclusive: 35.5 µM [inhibitor, partial curve]. With `Cc1[nH]c2ccccc2c1C1(O)C(=O)N(C(C)C)c2ccccc21` (stereo not drawn) the Potency was inconclusive: 10 µM [inhibitor, partial curve]. With `Oc1ccc(N2CCN(C(c3cccs3)c3nnnn3CCc3ccccc3)CC2)cc1` (stereo not drawn) the Potency was active: 25.1 µM. In the case of `COc1ccc(-n2nnnc2-c2cnc(N3CCCC3)nc2C(F)(F)F)cc1`, the “activity, negative = inhibition” value was inactive: -0.153%. In the case of `CCOC(=O)c1c(NC(=O)Cn2cnc([N+](=O)[O-])n2)sc2c1CCC(C)C2` (stereo not drawn), the “activity, negative = inhibition” value was inactive: -1.83%. For `COc1ccc(C(=O)Oc2cc3c4c(c2)C(C)=CC(C)(C)N4C(=O)C3=O)cc1OC`, the Potency was inconclusive: 2.24 µM [inhibitor, full curve]. In the case of `CCN(CC)S(=O)(=O)c1cccc(N=NC2=C(O)CCCC2=O)c1`, the Potency was inconclusive: 39.8 µM [inhibitor, single point]. In the case of `COc1ccc(Cl)cc1Nc1nc(-c2sc(NC(=O)CC(C)C)nc2C)cs1`, the Potency was inconclusive: 31.6 µM [inhibitor, single point]. With `O=C1C=C(NNC(=O)c2ccncc2)CC(c2ccccc2)C1` (stereo not drawn) the Potency was active: 8.91 µM. For `O=C(COC(=O)Cc1c(F)cccc1Cl)NCCC1=CCCCC1`, the Potency was inconclusive: 31.6 µM [inhibitor, single point]. In the case of `CCC(=O)NC(=S)Nc1ccc(OC)cc1OC`, the “activity, negative = inhibition” value was inactive: 5.41%. In the case of `COCCNc1ccnc(-c2ccccc2C)n1`, the Potency was inconclusive: 12.6 µM [inhibitor, partial curve, poor fit]. In the case of `O=C(CSc1nnnn1C1CCCC1)Nc1ccc2c(c1)OCCO2`, the Potency was active: 6.31 µM. In the case of `Cc1nc(CN2CCCCC2)c(O)c(=O)[nH]1`, the activity, negative = inhibition was inactive: 7.33% [at 13.5 µM]. In the case of `COc1ccc(C(C)=O)cc1COC(=O)c1cc(C)oc1C`, the Potency was active: 17.8 µM. In the case of `COc1ccc(CCNC(=O)C2CCC(CNS(=O)(=O)c3ccccc3)CC2)cc1OC` (stereo not drawn), the Potency was active: 0.631 µM. In the case of `CCOC(=O)C1(CC2CCCCO2)CCN(C(=O)Nc2ccccc2)CC1` (stereo not drawn), the “activity, negative = inhibition” value was inactive: -5.89%. With `CCOC(=O)c1nnn(-c2nonc2N)c1CN1CCCCCC1` the Potency was active: 2.24 µM. With `NCC(=O)N[C@H](CO)C(=O)O` the activity, negative = inhibition was inactive: -3.42% [at 13.5 µM]. `O=C(Nc1ccc(S(=O)(=O)N2CCCC2)cc1)c1ccc(CN2CCOCC2)cc1` was tested, and the Potency was inconclusive: 22.4 µM [inhibitor, single point]. `CCOc1ccccc1N1CCN(Cc2ccc(OC)c(OC)c2)CC1` was tested, and the Potency was inconclusive: 15.8 µM [inhibitor, partial curve]. For `CCn1c(=O)cc(OCC(=O)NCCc2ccc(OC)c(OC)c2)c2ccccc21`, the Potency was inconclusive: 39.8 µM [inhibitor, single point]. For `O=C(Cn1nnc(-c2ccc(S(=O)(=O)N3CCCC3)cc2)n1)Nc1ccccc1-n1cccc1`, the Potency was inconclusive: 39.8 µM [inhibitor, single point]. `O=C(CNC(=O)c1ccc2c(c1)OCCO2)N/N=C/c1cccc(Br)c1` was tested, and the Potency was inconclusive: 2.82 µM [inhibitor, full curve]. For `COc1cccc(Nc2nc3ccccc3nc2NS(=O)(=O)c2cccs2)c1`, the Potency was inconclusive: 39.8 µM [inhibitor, single point]. In the case of `CCOc1ccc2noc3c2c1C(=O)c1ccccc1-3`, the Potency was inconclusive: 12.6 µM [inhibitor, partial curve]. In the case of `O=C1CN(C(=O)COC(=O)CCCOc2ccccc2)c2ccccc2N1`, the Potency was inconclusive: 44.7 µM [inhibitor, single point]. `Clc1cccc(-c2nc3nc4ccccc4nc3n2Cc2ccco2)c1` was tested, and the Potency was inconclusive: 28.2 µM [inhibitor, partial curve]. `CCNC(=S)Nc1ccc2cn[nH]c2c1` was tested, and the “activity, negative = inhibition” value was inactive: 8.03%. For `CC1CCC(NC(=O)CN2C(=O)C3CCCN3c3ncc(Cl)cc32)CC1` (stereo not drawn), the Potency was inconclusive: 28.2 µM [inhibitor, single point]. With `O=C(c1ccc(Cl)cc1)C1CCN(C(=O)NC2CCCCC2)CC1` the Potency was inconclusive: 22.4 µM [inhibitor, single point]. For `COc1cc(C(=O)Oc2c(CN3CCOCC3)cc(Cl)c3cccnc23)cc(OC)c1OC`, the “activity, negative = inhibition” value was inactive: 10.9%. In the case of `COCC(C)NC(=O)CSc1nc2ccccc2n1CCc1ccccc1` (stereo not drawn), the Potency was inconclusive: 39.8 µM [inhibitor, single point]. In the case of `CC(NC(=O)Cn1cccc1C(=O)c1ccccc1)c1ccc2c(c1)OCCO2` (stereo not drawn), the “activity, negative = inhibition” value was inactive: -8.35%. For `COc1ccc2c(c1)-c1nc(/N=C/c3cccc(OC)c3O)sc1CC2`, the Potency was active: 11.2 µM. For `CCN(C(=O)CSc1nnc2ccccn12)C1CCS(=O)(=O)C1` (stereo not drawn), the Potency was inconclusive: 35.5 µM [inhibitor, single point]. With `Cc1ccc(C(=O)NC2CCCc3ccccc32)o1` (stereo not drawn) the Potency was inconclusive: 25.1 µM [inhibitor, single point]. `O=C(COC(=O)c1cccc(S(=O)(=O)N2CCc3ccccc3C2)c1)NCc1ccco1` was tested, and the Potency was inconclusive: 35.5 µM [inhibitor, single point]. With `CCCc1nc2c(=O)[nH]c3ccccc3c2o1` the Potency was inconclusive: 25.1 µM [inhibitor, partial curve]. In the case of `Cc1ccc2nc(NC(=O)CSc3ncnc4c3oc3ccccc34)sc2c1`, the “activity, negative = inhibition” value was inactive: 7%. `COc1ccc2[nH]c(=O)c(CN(C(=O)c3ccccn3)C3CCCCC3)cc2c1` was tested, and the Potency was inconclusive: 28.2 µM [inhibitor, partial curve]. With `Fc1ccc(-c2nc3ccccn3c2NCc2ccc3c(c2)OCO3)cc1` the Potency was inconclusive: 25.1 µM [inhibitor, partial curve]. In the case of `CCOc1ccc(NC(=O)CC2C(=O)N(c3ccccc3)C(=O)N2CCOC)cc1` (stereo not drawn), the Potency was active: 15.8 µM. In the case of `Cc1ccc(NC(=S)NNC(=O)c2ccc(N3CCOCC3)c([N+](=O)[O-])c2)cc1Cl`, the Potency was active: 7.94 µM. `CCCCc1nn(-c2cc(Cl)ccc2OC)c2c1C(=O)CCC2` was tested, and the Potency was inconclusive: 5.62 µM [inhibitor, partial curve]. In the case of `FC(F)(F)c1cc(-c2cccs2)nc2cc(-c3ccccc3)nn12`, the Potency was inconclusive: 28.2 µM [inhibitor, partial curve]. `Cc1ccc(O)c(N=Cc2cc(Cc3ccccc3)cc([N+](=O)[O-])c2O)c1` was tested, and the Potency was active: 14.1 µM. `CCN1CCC(NC(=O)Nc2cc(Cl)ccc2OC)CC1` was tested, and the Potency was inconclusive: 39.8 µM [inhibitor, single point]. With `CCc1cc(=O)oc2c(C)c(OCC(=O)N3CCCc4ccccc43)ccc12` the Potency was inconclusive: 28.2 µM [inhibitor, partial curve]. `COc1ccc(S(=O)(=O)N(CCc2ccccc2)CC(=O)N2CCOCC2)cc1` was tested, and the Potency was inconclusive: 10 µM [inhibitor, partial curve]. In the case of `CCc1nc(N)c(C#N)c(-c2ccncc2)c1C`, the “activity, negative = inhibition” value was inactive: 3.02%. For `O=C(CSc1nc2ccccc2s1)NCCOc1ccccc1`, the “activity, negative = inhibition” value was inactive: -7.5%. `CC(C)CC(=O)NC(=S)Nc1ccccc1C(=O)Nc1ccccc1` was tested, and the Potency was active: 10 µM. For `CCCC[C@@H]1CN2[C@H](c3ccc(Br)cc3)[C@@H](C)CC[C@H]2C(=O)O1`, the activity, negative = inhibition was inactive: 3.52% [at 13.5 µM]. With `COc1ccc(-c2oc(/N=C/N3CCOCC3)c(C#N)c2-c2ccc(OC)cc2)cc1` the Potency was inconclusive: 31.6 µM [inhibitor, single point]. For `Fc1ccc(-c2[nH]ncc2CN(CC2CCC2)CC2CCCO2)c(F)c1` (stereo not drawn), the “activity, negative = inhibition” value was inactive: -1.91%. `O=C(c1csnn1)N1CCC2(CC1)CN(c1cccc(-c3ccccc3)c1)C2` was tested, and the Potency was inconclusive: 39.8 µM [inhibitor, single point]. With `O=C(c1cc(Cl)ccc1Cl)N1CCN(c2ccccn2)CC1` the “activity, negative = inhibition” value was inactive: -6.68%. In the case of `O=C(NCc1ccco1)c1cc2cc3ccc(Cl)cc3nc2o1`, the Potency was inconclusive: 25.1 µM [inhibitor, partial curve]. For `Cc1nccn1-c1ccc(C=O)cc1`, the Potency was active: 20 µM. In the case of `COc1ccc(CNC(=O)c2cc(C)nc3ccccc23)cc1OC`, the “activity, negative = inhibition” value was inactive: 13.7%. `Cc1ccc(CNc2ccc(N3C(=O)CC(C)C3=O)cc2[N+](=O)[O-])cc1` (stereo not drawn) was tested, and the Potency was inconclusive: 39.8 µM [inhibitor, single point]. In the case of `Cc1ccc(S(=O)(=O)N2CCN(C(=O)c3cc(=O)[nH]c4ccccc34)CC2)c(C)c1`, the Potency was inconclusive: 28.2 µM [inhibitor, partial curve]. In the case of `COc1ccc(Oc2ncc3nc(CCc4ccccc4)c(=O)n(C4CC4)c3n2)cc1`, the Potency was inconclusive: 22.4 µM [inhibitor, partial curve]. `O=C(NC1CC1)C1CCN(C2CCN(C(=O)Cc3ccc4c(c3)OCO4)CC2)CC1` was tested, and the Potency was inconclusive: 35.5 µM [inhibitor, single point]. In the case of `COc1ccccc1N(CC(=O)N/N=C/c1c(O)ccc2ccccc12)S(C)(=O)=O`, the “activity, negative = inhibition” value was inactive: 0.19%.
